Patent publication US20240052055A1 (SIMCERE ZAIMING PHARMACEUTICAL, published 2024)

T1: polypeptide YP7pep of human GPC3 (Asp511-Ser560) (human)
T1 construct: Synthetic peptide made by GL Biochem; also called polypeptide YP7pep protein
T1 peptide: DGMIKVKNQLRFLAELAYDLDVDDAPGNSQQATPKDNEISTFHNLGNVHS


Key:
[1] = target: T2, human GPC3 on cells (HepG2 endogenous; CHO-K1 recombinant clones CHOK1-hGPC3.1C3, 2B5, 3E9) (human, UniProt P51654 25-554); assay: FACS on HepG2 cells
T2 construct: Full-length human GPC3 (NCBI NM_004484.3) transfected into CHO-K1; HepG2 expresses GPC3 endogenously; also called CHO-K1-human GPC3 cells; HepG2 cells

[2] = target: T3, human GPC3 (Gln25-His559)-His protein (Acro, Cat. No. GP3-H52H4) (human, UniProt P51654 25-559); assay: ELISA; antibody 10 nM
T3 construct: Bought protein; also called human GPC3-His protein; human GPC3-his protein; not shown: His tag
Description: (§1) After incubation for 2 h at 37° C., the plate was washed 3 times with PBS.

[3] = target: T4, monkey GPC3-His protein (Acro, Cat. No. GP3-05225) (monkey, UniProt A5A6P7 25-559); assay: ELISA; antibody 10 nM
T4 construct: Bought protein; the soluble protein surely lacks signal peptide and C-terminal anchor region; also called monkey GPC3 protein; not shown: His tag
Description: as §1

[4] = target: T3, human GPC3 (Gln25-His559)-His protein …; assay: ELISA; antibody 0.001 nM
Description: as §1

[5] = target: T4, monkey GPC3-His protein (Acro, Cat. No. …); assay: ELISA; antibody 0.001 nM
Description: as §1

[6] = target: T3, human GPC3 (Gln25-His559)-His protein …; assay: SPR (Biacore), antibody captured on Protein A chip
Description: (§2) The sample and running buffer was HBS-EP+ (10 mM HEPES, 150 mM NaCl, 3 mM EDTA, 0.05% surfactant P20) (GE Healthcare; BR-1006-69). The flow cell was set at 25° C. The sample block was set at 16° C. Both were pretreated with the running buffer. […] The association and dissociation processes of the antibody with the antigen protein were recorded, and finally, the chip was regenerated using Glycine pH 1.5 (GE Healthcare; BR-1003-54). […] The dissociation phase was monitored for up to 600 s and triggered by switching from the sample solution to the running buffer. The surface was regenerated by washing with 10 mM glycine solution (pH 1.5) at a flow rate of 30 μL/min for 30 s. The difference in bulk refractive index was corrected by subtracting the responses obtained from the goat anti-human Fc surface. Blank injections were also subtracted (double reference). To calculate the apparent KD and other kinetic parameters, the Langmuir 1:1 model was used.

[7] = target: T4, monkey GPC3-His protein (Acro, Cat. No. …); assay: SPR (Biacore), antibody captured on Protein A chip
Description: as §2

[8] = target: T3, human GPC3 (Gln25-His559)-His protein …; assay: ELISA; antibody 0.01 nM
Description: as §1

[9] = target: T4, monkey GPC3-His protein (Acro, Cat. No. …); assay: ELISA; antibody 0.01 nM
Description: as §1

[10] = target: T2, human GPC3 on cells (HepG2 endogenous; …); assay: FACS on CHO-K1-human GPC3 cells
[11] = target: T5, monkey GPC3 on HEK293T cells (monkey, UniProt A5A6P7 25-554); assay: FACS on HEK293T-monkey GPC3 cells
T5 construct: Full-length monkey GPC3 (NCBI XP_011739317.1) transfected into HEK293T; also called HEK293T-monkey GPC3 cells; HEK293T-monkey-GPC3

[12] = target: T3, human GPC3 (Gln25-His559)-His protein …; assay: ELISA; antibody 0.0001 nM
Description: as §1

[13] = target: T4, monkey GPC3-His protein (Acro, Cat. No. …); assay: ELISA; antibody 0.0001 nM
Description: as §1

[14] = target: T3, human GPC3 (Gln25-His559)-His protein …; assay: ELISA; antibody 100 nM
Description: as §1

[15] = target: T4, monkey GPC3-His protein (Acro, Cat. No. …); assay: ELISA; antibody 100 nM
Description: as §1

[16] = target: T1, polypeptide YP7pep of human GPC3 …; assay: ELISA on coated polypeptide YP7pep, HRP-labeled secondary antibody
Description: as §1

[17] = target: T3, human GPC3 (Gln25-His559)-His protein …; assay: ELISA; antibody 0.1 nM
Description: as §1

[18] = target: T4, monkey GPC3-His protein (Acro, Cat. No. …); assay: ELISA; antibody 0.1 nM
Description: as §1

[19] = target: T3, human GPC3 (Gln25-His559)-His protein …; assay: ELISA; antibody 1 nM
Description: as §1

[20] = target: T4, monkey GPC3-His protein (Acro, Cat. No. …); assay: ELISA; antibody 1 nM
Description: as §1

[21] = target: T6, mouse GPC3-His protein (Sino Biological, Cat. No. 50989-M08B) (mouse, UniProt Q8CFZ4 25-558); assay: ELISA; antibody 10 nM
T6 construct: Bought protein; also called mouse GPC3 protein; not shown: His tag
Description: as §1

[22] = target: T6, mouse GPC3-His protein (Sino …); assay: ELISA; antibody 0.001 nM
Description: as §1

[23] = target: T6, mouse GPC3-His protein (Sino …); assay: SPR (Biacore), antibody captured on Protein A chip
Description: as §2

[24] = target: T6, mouse GPC3-His protein (Sino …); assay: ELISA; antibody 0.01 nM
Description: as §1

[25] = target: T6, mouse GPC3-His protein (Sino …); assay: ELISA; antibody 0.0001 nM
Description: as §1

[26] = target: T6, mouse GPC3-His protein (Sino …); assay: ELISA; antibody 100 nM
Description: as §1

[27] = target: T6, mouse GPC3-His protein (Sino …); assay: ELISA; antibody 0.1 nM
Description: as §1

[28] = target: T6, mouse GPC3-His protein (Sino …); assay: ELISA; antibody 1 nM
Description: as §1

[29] = target: T2, human GPC3 on cells (HepG2 endogenous; …); assay: FACS on HepG2 cells; remark: listed apart in the source
[30] = target: T3, human GPC3 (Gln25-His559)-His protein …; assay: SPR (Biacore), antibody captured on Protein A chip; remark: listed apart in the source
Description: as §2

T6 sequence (Q8CFZ4 25-558 limits assumed): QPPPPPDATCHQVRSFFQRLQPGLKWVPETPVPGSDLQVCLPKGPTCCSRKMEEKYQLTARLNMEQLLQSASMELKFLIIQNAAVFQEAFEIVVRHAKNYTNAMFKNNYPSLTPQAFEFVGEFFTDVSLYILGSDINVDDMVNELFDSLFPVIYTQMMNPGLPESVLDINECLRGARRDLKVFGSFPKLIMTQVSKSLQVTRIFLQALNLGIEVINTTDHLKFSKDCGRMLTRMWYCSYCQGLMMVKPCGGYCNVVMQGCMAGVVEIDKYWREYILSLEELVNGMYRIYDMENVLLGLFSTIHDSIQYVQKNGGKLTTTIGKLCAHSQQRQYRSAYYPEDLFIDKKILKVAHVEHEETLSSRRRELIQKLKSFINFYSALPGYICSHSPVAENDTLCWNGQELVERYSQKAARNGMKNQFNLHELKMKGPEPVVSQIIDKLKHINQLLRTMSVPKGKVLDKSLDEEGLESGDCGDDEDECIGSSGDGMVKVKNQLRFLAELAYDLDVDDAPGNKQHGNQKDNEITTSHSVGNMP

Row | EC50 [1] [nM] | Max MFI [1] | OD450 [2] | OD450 [4] | Kd [6] [nM] | koff [6] [s⁻¹] | kon [6] [M⁻¹ s⁻¹] | Kd [7] [nM] | koff [7] [s⁻¹] | kon [7] [M⁻¹ s⁻¹] | OD450 [8] | Max MFI [10] | EC50 [11] [nM] | Max MFI [11] | OD450 [12] | OD450 [13] | OD450 [14] | binding result [16] | OD450 [17] | OD450 [19] | other results | Binder
1 | 9.22 | 2460 | 1.96 | 0.051 | 6.06 | 0.00241 | 398000 | 4.23 | 0.00103 | 243000 | 0.095 | 2240 | 57.6 | 10400 | 0.048 | 0.046 | 2.24 | no binding (tested: 100 nM) | 0.624 | 1.72 | OD450 [3]: 2.01; OD450 [5]: 0.049; OD450 [9]: 0.097; OD450 [15]: 2.37; OD450 [18]: 0.684; OD450 [20]: 1.76 | S001-NB150-20(cyno+) VHH-hFc (Fc fusion, VHH recombined with human IgG1 Fc (VHH-hFc); the junction between VHH and Fc is not described) QVQLVESGGGLVQAGGSLKLSCAASGRSFSPYAMGWFRQAPGKDREFVAAISNSGGSTYYADAVKGRFSISRDNAKNTVYLQMNNLEPEDTAVYYCTGPVKRYSTDFQGGDYWGQGTQVTVSS[human IgG1 Fc with changes left out]
2 | 0.71 | 2020 | 0.325 | 0.053 | 7.45 | 0.00114 | 153000 | 5.63 | 0.000983 | 175000 | 0.055 | 3510 | 0.77 | 15500 | 0.046 | 0.045 | 0.354 | no binding (tested: 100 nM) | 0.127 | 0.282 | OD450 [21]: 0.55; OD450 [22]: 0.049; Kd [23]: 5.74 nM; koff [23]: 0.00116 s⁻¹; kon [23]: 203000 M⁻¹ s⁻¹; OD450 [24]: 0.059; EC50 [10]: 0.37 nM; OD450 [25]: 0.048; OD450 [26]: 0.324; OD450 [27]: 0.153; OD450 [28]: 0.461 | S001-NB152-1 VHH-hFc (Fc fusion, VHH recombined with human IgG1 Fc (VHH-hFc); the junction is not described) QVQLVESGGGLVQAGGSLSLSCAASGRRFSTNVMGWFRQAPGKEREFLAAINWVIGNTNYAESVKGRFTISRDNAKETVYLQMDNLKVEDTAVYYCAGRSSYYTSSRREDYDYWGQGTQVTVSS[human IgG1 Fc with changes left out]
3 |  |  |  |  |  |  |  |  |  |  |  |  |  |  |  |  |  |  |  |  | EC50 [29]: 0.18 nM; Kd [30]: 16.7 nM; koff [30]: 0.0024 s⁻¹; kon [30]: 144000 M⁻¹ s⁻¹ | VHH-12 VHH-hFc (Fc fusion, VHH recombined with human IgG1 Fc (VHH-hFc); the junction is not described; also called VFIH-12) QVQLVESGGGLVQAGGSLRLSCAASGFTLENYAIGWFRQAPGKEREGVSYITGGTGTTVYADSVKGRFTISRDNTKNTVYLQMNSLKPEDTAVYFCATLKRTTAGGWPKPGRIGGQGTQVTVSS[human IgG1 Fc with changes left out]
4 |  |  |  |  |  |  |  |  |  |  |  |  |  |  |  |  |  |  |  |  | OD450 [21]: 2.04; OD450 [22]: 0.088; Kd [23]: 0.0813 nM; koff [23]: 4.25e-05 s⁻¹; kon [23]: 524000 M⁻¹ s⁻¹; OD450 [24]: 0.304; OD450 [25]: 0.056; OD450 [26]: 2.19; OD450 [27]: 1.41; OD450 [28]: 1.39 | Tab005 (T2-23 scFv-hFc) (Fc fusion, Control antibody: VL-(GGGGS)3-VH of T2-23 fused to human IgG1 Fc; also called T2-23 scFv-human IgG1 Fc) QSALTQPPSASGSPGQSVTISCTGTSSDVGGYNYVSWYQQYPGKAPKLLIYGNSNRPSGVPDRFSGSKSGTSASLAITGLQAEDGADYYCQSYDSSLRVVFGGGTKVTVLGGGGGSGGGGSGGGGSQVQLQESGGGLVQPGRSLRLSCAASGFTFSSYAMHWVRQAPGKGLEWVSAISSSGRSTYYADSVEGRFTISRDNSKNTLYLQMNSLRAEDTAVYYCAKDRRGSHADALNVWGQGTLVTVSS[human IgG1 Fc with changes left out]

Like-named read-outs stand apart in the source and are kept apart here.
